In PubChem BioAssay AID250 (DTP/NCI, 2004):
Toxic doses and inconclusive results are not listed. Not every entry of the source has a single result; some have several. This list holds those alone. The source may hold further records. Values that stand side by side differ, and nothing given here explains why; dose, time, organism, isomer or construct need not be as stated for each record. Brackets tell where a record comes from. Letters count within one entry. Marks such as (2×) give the number of equal values in this list.

System: BDF1 mice, L1210 leukemia sc, survival T/C
Experiment: NCI In Vivo Anticancer Drug Screen. Data for tumor model L1210 Leukemia (subcutaneous) in B6D2F1 (BDF1) mice
Details: endpoint: median survival time, higher = longer survival
Procedure: The antitumor activity of compounds was measured in mice bearing transplantable tumors. Survival or tumor size were measured and the results are expressed as the measurement made in the treated group (T) divided by the measurement made in the vehicle treated control group (C). The tumor model used in this assay is L1210 Leukemia (subcutaneous) in B6D2F1 (BDF1) mice

O=NN(CCCl)C(=O)NCCCl
T/C (dose: 1.8 mg/kg/injection, schedule: Q01DX Z (sc), vehicle: saline): 110 % of control and 176 % of control

CC(CN1CC(=O)NC(=O)C1)N1CC(=O)NC(=O)C1 (stereo not drawn)
T/C (dose: 500.0 mg/kg/injection, schedule: Q04DX003 (sc), vehicle: Klucel (hydroxypropylcellulose) (HPC)): 107 % of control, 111 % of control, 155 % of control

CCCCCCCCCCCCCCCC(=O)OCC1OC(n2ccc(N)nc2=O)C(O)C1O (stereo not drawn)
T/C (dose: 300.0 mg/kg/injection, schedule: Q01DX001 (sc), vehicle: saline): 110 % of control and 150 % of control

Nc1nc(=S)c2ncn(C3CC(O)C(CO)O3)c2[nH]1 (stereo not drawn)
T/C (dose: 75.0 mg/kg/injection, schedule: Q02DX005 (sc), vehicle: saline): 161 % of control (2×) [sample A] and 103 % of control (2×) [sample B]

C[C@H](CN1CC(=O)NC(=O)C1)N1CC(=O)NC(=O)C1
T/C (dose: 64.0 mg/kg/injection, schedule: Q01DX009 (ip), vehicle: water): 124 % of control and 164 % of control

O=c1[nH]cc(F)c(=O)[nH]1
T/C (dose: 14.0 mg/kg/injection, schedule: Q01DX Z (sc), vehicle: saline): 100 % of control, 105 % of control, 175 % of control
T/C (dose: 23.0 mg/kg/injection, schedule: Q01DX Z (sc), vehicle: saline): 115 % of control, 152 % of control, 170 % of control
T/C (dose: 64.8 mg/kg/injection, schedule: Q01DX Z (sc), vehicle: saline): 87 % of control and 150 % of control
